# From a collection of fitness landscapes (doi:10.1016/j.celrep.2020.107928)
# The full ranking holds about 81,000 sequences; the median of “one-hybrid fitness for binding parS DNA” is about -0.17, and the highest 2% start at about 0.51. The list shows a part of the results.
# B1: Caulobacter ParB omega fusion; a variant is named by its letters at X, in order, B8GW30 (parent)
# chain: MESVVVGEPGMSEGRRGLGRGLSALLGEVDAAPAQAPGEQLGGSREAPIEILQRNPDQPRRTFREEDLEDLSNSIREKGVLQPILVRPSPDTAGEYQIVAGERAWRAAQRAGLKTVPIMVRELDDLAVLEIGIIENVQRADLNVLEEALSYKVLMEKFERTQENIAQTIGKSXSHVANXMRLLXLPDEVQSYLVSGELTAXHARAIAAAADPVALAKQIIEGGLSVRETEALARKAPNLSAGKSKGGRPPRVKDTDTQALESDLSSVLGLDVSIDHRGSTGTLTITYATLEQLDDLCNRLTRGI
# Variants of: B1
# Experiment: one-hybrid fitness for binding parS DNA (scaled: cognate 1, non-cognate 0); higher = stronger binding
# Settings: with parS DNA site
# Summary of the method: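 Fitness is the rescaled log change in variant-to-wild-type read ratio, measured by Illumina sequencing of plasmids before and after bacterial one-hybrid selection. The scale puts cognate at 1 and non-cognate at 0. Selection of Caulobacter ParB libraries, four specificity codons randomised, took place in E. coli USO with a HIS3 reporter, site 19 bp from the promoter, over 48 hours at 37°C on M9-minus-histidine with 0.1 mM IPTG and 5 mM 3-AT.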
row,Variant,one-hybrid fitness for binding parS DNA
1,NRGA,≤ 0.2
2,WLAG,≤ 0.2
3,NHAF,≤ 0.2
4,LRNV,≤ 0.2
5,VEAQ,≤ 0.2
6,VGKT,≤ 0.2
7,GRGL,≤ 0.2
8,IGNN,≤ 0.2
9,VHMY,≤ 0.2
10,QQHV,≤ 0.2
11,PWAL,≤ 0.2
12,KLNP,≤ 0.2
13,HARG,≤ 0.2
14,KCKP,≤ 0.2
15,IQYE,≤ 0.2
16,RSIA,0.474
17,THCG,≤ 0.2
18,AYAN,≤ 0.2
19,LDIY,≤ 0.2
20,DPCR,≤ 0.2
21,SHKI,≤ 0.2
22,YPCG,≤ 0.2
23,QFLT,≤ 0.2
24,KMDS,≤ 0.2
25,PESD,≤ 0.2

row,Variant,one-hybrid fitness for binding parS DNA
1,LVGE,≤ 0.2
2,DHRQ,≤ 0.2
3,GWCG,≤ 0.2
4,GTEE,≤ 0.2
5,AQKQ,≤ 0.2
6,ALKG,≤ 0.2
7,ILTT,≤ 0.2
8,YAGG,≤ 0.2
9,RAKY,0.644
10,VRSS,≤ 0.2
11,LMRL,≤ 0.2
12,TIRH,≤ 0.2
13,NELR,≤ 0.2
14,PMSY,≤ 0.2
15,QMSE,≤ 0.2
16,HAWT,≤ 0.2
17,ENYK,≤ 0.2
18,EHTT,≤ 0.2
19,KMLK,≤ 0.2
20,GPHT,≤ 0.2
21,RKTD,≤ 0.2
22,MHPF,≤ 0.2
23,FRFC,≤ 0.2
24,CQHW,≤ 0.2
25,YFLR,≤ 0.2

row,Variant,one-hybrid fitness for binding parS DNA
1,SCLK,≤ 0.2
2,CSQG,≤ 0.2
3,LYDW,≤ 0.2
4,WFWS,≤ 0.2
5,AIDD,≤ 0.2
6,KAES,≤ 0.2
7,DHRY,≤ 0.2
8,CSQN,≤ 0.2
9,THQN,≤ 0.2
10,PYSH,≤ 0.2
11,SGHP,≤ 0.2
12,AVKS,≤ 0.2
13,QVRC,≤ 0.2
14,QTIY,≤ 0.2
15,MSNK,≤ 0.2
16,STRK,≤ 0.2
17,RIVF,0.378
18,RMLI,≤ 0.2
19,AAPC,≤ 0.2
20,PMMV,≤ 0.2
21,NCHW,≤ 0.2
22,NIAA,≤ 0.2
23,TGEV,≤ 0.2
24,VYNQ,≤ 0.2
25,TVSI,≤ 0.2

row,Variant,one-hybrid fitness for binding parS DNA
1,PPIG,≤ 0.2
2,PACW,≤ 0.2
3,FREP,≤ 0.2
4,KMLC,≤ 0.2
5,TFSE,≤ 0.2
6,PNET,≤ 0.2
7,WTVT,≤ 0.2
8,MTLR,≤ 0.2
9,QGQG,≤ 0.2
10,QGWR,≤ 0.2
11,MQAT,≤ 0.2
12,RDFA,≤ 0.2
13,NGEN,≤ 0.2
14,RFEM,0.246
15,YAPE,≤ 0.2
16,PPQE,≤ 0.2
17,GQHW,≤ 0.2
18,RKIG,0.855
19,ALRN,≤ 0.2
20,LISA,≤ 0.2
21,LRTE,≤ 0.2
22,GLGP,≤ 0.2
23,FRGE,≤ 0.2
24,MIPG,≤ 0.2
25,EKES,≤ 0.2

row,Variant,one-hybrid fitness for binding parS DNA
1,NLGV,≤ 0.2
2,QPHR,≤ 0.2
3,PLWR,≤ 0.2
4,IVFG,≤ 0.2
5,TAEL,≤ 0.2
6,LHYR,≤ 0.2
7,QVTK,≤ 0.2
8,PGGV,≤ 0.2
9,KNRS,≤ 0.2
10,PPRA,≤ 0.2
11,QGNY,≤ 0.2
12,MIYS,≤ 0.2
13,PHVV,≤ 0.2
14,NLGR,≤ 0.2
15,QTIT,≤ 0.2
16,ENKN,≤ 0.2
17,MRPR,≤ 0.2
18,RCYC,1
19,RKDV,≤ 0.2
20,MTVA,≤ 0.2
21,LSFS,≤ 0.2
22,NHAS,≤ 0.2
23,FFAG,≤ 0.2
24,DPKS,≤ 0.2
25,RRPI,≤ 0.2

row,Variant,one-hybrid fitness for binding parS DNA
1,EVDT,≤ 0.2
2,RDET,≤ 0.2
3,YPLK,≤ 0.2
4,ERGW,≤ 0.2
5,HQTV,≤ 0.2
6,AAYG,≤ 0.2
7,ELWG,≤ 0.2
8,NMRA,≤ 0.2
9,PGTF,≤ 0.2
10,MCGS,≤ 0.2
11,DATC,≤ 0.2
12,LQRA,≤ 0.2
13,LDEG,≤ 0.2
14,ADLA,≤ 0.2
15,TMHS,≤ 0.2
16,DGPI,≤ 0.2
17,RKKS,0.69
18,PNFS,≤ 0.2
19,SELY,≤ 0.2
20,GERD,≤ 0.2
21,APIH,≤ 0.2
22,NKVG,≤ 0.2
23,RWSE,≤ 0.2
24,YAVI,≤ 0.2
25,MRDT,≤ 0.2

row,Variant,one-hybrid fitness for binding parS DNA
1,KQSG,≤ 0.2
2,FIQR,≤ 0.2
3,RIDG,0.831
4,CKIG,≤ 0.2
5,SPTS,≤ 0.2
6,IPVI,≤ 0.2
7,FAPT,≤ 0.2
8,PGPS,≤ 0.2
9,TRCH,≤ 0.2
10,SICT,≤ 0.2
11,PPVL,≤ 0.2
12,LHAC,≤ 0.2
13,HCRY,≤ 0.2
14,SQDC,≤ 0.2
15,RVMG,0.971
16,FVEG,≤ 0.2
17,APWS,≤ 0.2
18,CPRE,≤ 0.2
19,KISE,≤ 0.2
20,SGMW,≤ 0.2
21,IRYW,≤ 0.2
22,NLSK,≤ 0.2
23,RDDE,≤ 0.2
24,DLLA,≤ 0.2
25,QTCF,≤ 0.2

row,Variant,one-hybrid fitness for binding parS DNA
1,MAEN,≤ 0.2
2,QILH,≤ 0.2
3,FPAT,≤ 0.2
4,SEFS,≤ 0.2
5,QQRN,≤ 0.2
6,YTLT,≤ 0.2
7,HASE,≤ 0.2
8,LPFI,≤ 0.2
9,DWNA,≤ 0.2
10,PYGR,≤ 0.2
11,APLQ,≤ 0.2
12,PFWN,≤ 0.2
13,RPLC,≤ 0.2
14,RNMI,≤ 0.2
15,YNRC,≤ 0.2
16,RNGL,≤ 0.2
17,VRAE,≤ 0.2
18,NALN,≤ 0.2
19,DLCC,≤ 0.2
20,TLAI,≤ 0.2
